The campaign covered roughly 310,000 compounds. About 14,000 (4.5%) showed an effect of 50% or more. Effects have a minus sign here. The list shows a part of the results.
Molecular target: human ether-à-go-go-related gene (hERG) potassium channel (human, UniProt Q12809)
Assay: primary screen, population patch clamp on CHO cells stably expressing hERG
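Also: peak tail current of the secondary pulse compared with the same well before compound.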

Chain of human ether-à-go-go-related gene (hERG) potassium channel (Q12809 whole entry, looked up): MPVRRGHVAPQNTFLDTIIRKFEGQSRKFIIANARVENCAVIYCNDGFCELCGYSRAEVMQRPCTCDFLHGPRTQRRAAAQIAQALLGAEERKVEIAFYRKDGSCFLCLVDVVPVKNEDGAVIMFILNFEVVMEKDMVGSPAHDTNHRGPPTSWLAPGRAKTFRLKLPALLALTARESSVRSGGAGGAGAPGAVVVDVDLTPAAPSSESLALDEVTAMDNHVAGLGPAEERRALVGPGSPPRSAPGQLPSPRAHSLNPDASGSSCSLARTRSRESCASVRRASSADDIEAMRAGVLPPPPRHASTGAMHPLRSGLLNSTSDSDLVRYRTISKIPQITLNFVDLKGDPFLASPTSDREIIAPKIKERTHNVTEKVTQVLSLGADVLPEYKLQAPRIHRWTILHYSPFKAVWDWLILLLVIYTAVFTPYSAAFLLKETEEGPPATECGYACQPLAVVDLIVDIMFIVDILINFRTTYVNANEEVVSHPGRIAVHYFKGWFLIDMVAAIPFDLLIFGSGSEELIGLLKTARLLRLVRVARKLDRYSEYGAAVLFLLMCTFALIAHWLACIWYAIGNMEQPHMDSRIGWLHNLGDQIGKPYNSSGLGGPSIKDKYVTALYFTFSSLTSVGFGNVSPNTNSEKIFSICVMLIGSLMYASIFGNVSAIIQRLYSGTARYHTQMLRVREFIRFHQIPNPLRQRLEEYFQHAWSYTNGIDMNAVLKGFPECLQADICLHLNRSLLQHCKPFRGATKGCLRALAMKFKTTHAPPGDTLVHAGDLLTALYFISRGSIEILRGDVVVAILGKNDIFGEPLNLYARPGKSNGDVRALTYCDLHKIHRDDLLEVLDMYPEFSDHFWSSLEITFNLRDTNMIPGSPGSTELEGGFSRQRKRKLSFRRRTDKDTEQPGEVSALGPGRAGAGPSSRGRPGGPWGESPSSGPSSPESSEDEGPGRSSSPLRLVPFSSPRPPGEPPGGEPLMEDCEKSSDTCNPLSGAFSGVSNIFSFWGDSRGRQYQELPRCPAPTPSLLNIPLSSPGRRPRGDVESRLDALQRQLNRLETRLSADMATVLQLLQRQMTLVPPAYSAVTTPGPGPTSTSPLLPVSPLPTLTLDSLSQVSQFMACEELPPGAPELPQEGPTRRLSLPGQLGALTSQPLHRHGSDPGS

Point of comparison: `Clc1c(-c2ccccc2)nc2ccccn12`, “hERG current change (%, negative = inhibition) at 10uM” value -1.73%. Against it:
- CCOc1cc(CN2CCN(C(=O)c3ccco3)CC2)ccc1OC — lower, -28.7%
- COc1cc(C2NC(=O)CCC2[N+](=O)[O-])cc(OC)c1OC (stereo not shown) — higher, 29.6%
- COc1ccc(-c2nc(-c3cccs3)no2)cc1 — higher, -0.668%
- O=C(CCCCCn1c(=S)[nH]c2ccc(N3CCOCC3)cc2c1=O)NCCc1ccccc1 — higher, 0.587%
- COC(=O)C1C(=O)NCC1c1ccc(C)cc1 (stereo not shown) — higher, 16.9%
- Cc1ccc(-n2c(C)cc(=O)cc2C)c(C)c1 — higher, -0.0171%
- Clc1ccc(CSc2nnc(CNc3cccc(Cl)c3)o2)cc1 — higher, 3.8%
- NC(=O)c1ccc(NC(=O)COC(=O)CCSc2ccccc2)cc1 — higher, 1.01%
- Cc1cc(C)cc(OCC(=O)OCCN2C(=O)c3ccccc3C2=O)c1 — lower, -3.21%
- CSCCC(NC(=O)COc1ccccc1)C(=O)NCc1cccs1 (stereo not shown) — lower, -36.7%
- CCOc1ccc(OCC)c(NC(=O)CSCCc2ccccn2)c1 — lower, -4.89%
- COc1cc(/C=N/n2nnnc2N)ccc1OC(C)C — higher, 3.75%
- O=S(=O)(N/N=C/c1cccc(OC2CSC2)c1)c1ccccc1 — lower, -17.2%
- COCCN(C(=S)Nc1ccc(OC)cc1)C(C)c1cccs1 (stereo not shown) — lower, -18.2%
- Cc1ccc(NC(=O)CSc2nnc(-c3ccccc3C)o2)cc1C — higher, 8.78%
- O=C(COC(=O)c1ccc(F)cc1)Nc1ccc(Cl)cn1 — higher, 7.4%
- O=C(C1=C[C@@H](C2CCCCC2)C[C@@H](OCCCCO)O1)N1CCOCC1 — higher, 0.668%
- C=CCNC(=O)CSc1nc2cc(C(=O)OCC)ccc2n1CC — higher, 2.83%
- CC1=NN(c2ccc(C)cc2C)C(=O)C1C(c1cccc(O)c1)C1C(=O)N(c2ccc(C)cc2C)N=C1C (stereo not shown) — lower, -6.45%
- O=C(Cc1cccs1)NCCCc1ccccc1 — higher, -0.581%
- Cc1cccc(NC(=O)COc2ccc3oc4c(c3c2)CCCC4)n1 — higher, 4.11%
- O=C(/C=C/c1ccc2c(c1)OCO2)Nc1cc(S(=O)(=O)N2CCOCC2)ccc1N1CCOCC1 — lower, -55.9%
- Cc1c(C(=O)Nc2ccccc2C(=O)N2CCOCC2)cccc1[N+](=O)[O-] — lower, -6.92%
- CCCCNC(=O)N(C)c1nc2ccccc2s1 — lower, -8.43%
- Cc1cccc(/C=N/n2c(-c3ccccn3)n[nH]c2=S)c1 — higher, 19.2%
- CCOC(=O)c1ccccc1NC(=O)CSc1nnc(COc2ccccc2)n1CC — lower, -38.5%
- COc1cc(C(C[N+](=O)[O-])c2c(-c3ccccc3)cc3ccccn23)cc(OC)c1OC (stereo not shown) — higher, 17.2%
- O=C(NC1CCCCCCC1)C1CCC(CNc2c(N3CCCC3)c(=O)c2=O)CC1 (stereo not shown) — higher, 6.33%
- Cc1nn(-c2ccccc2)c(N)c1C1(O)C(=O)N(C)c2ccccc21 (stereo not shown) — higher, 14.4%
- Cc1cccc(OCc2nnc(SCC(=O)N(C(C)C)C(C)C)n2Cc2ccco2)c1C — lower, -43.9%
- CCN(Cc1nc2ccccc2n1C)c1ccccc1 — lower, -6.44%
- CSc1nc2ccccc2n1C(=O)NC1CCCCC1 — higher, 13.8%
- COc1ccc(N2CCN(Cc3nc(-c4ccccc4)no3)CC2)cc1 — higher, 8.23%
- COc1ccc(-c2noc(CNC(=O)Nc3ccc(F)cc3)n2)cc1 — lower, -5.09%
- CCn1ncc(C2=NOC(C(=O)NCc3ccc(Cl)cc3)C2)c1C (stereo not shown) — lower, -10.3%
- COc1ccc(S(=O)(=O)N(C)CC(=O)NCCCN2CCOCC2)cc1Cl — lower, -17.1%
- CCCC(=O)Nc1nn(CCC)c2nc3ccccc3cc12 — lower, -4.79%
- Cc1cccc(/C=N/NC(=O)c2ccncc2)n1 — higher, 23%
- O=C1C(Cl)=CC(=Nc2ccc([O-])cc2)C=C1Cl.[Na+] — higher, -0.852%
- Cc1ccc(O)c(-c2cc(C(=O)Nc3ccc(S(=O)(=O)N4CC(C)OC(C)C4)cc3)[nH]n2)c1 (stereo not shown) — higher, 3.92%
- Cc1ccc(SCCC(=O)N2CCN(S(=O)(=O)c3ccccc3)CC2)cc1 — lower, -35%
- N#Cc1ccc(CSc2ncccn2)cc1 — lower, -2.69%
- O=C(c1cn(Cc2ccccc2)c2ccccc12)C1CC1 — higher, 7.67%
- COc1ccccc1NC(=O)Cc1nnc(SCC(=O)Nc2nccs2)n1C — higher, 20.8%
- COC(=O)N/N=C(\CCC(=O)O)c1cccs1 — higher, 11.7%
- CC1CN(C(=O)c2cc(S(=O)(=O)N3CCN(c4ccccc4)CC3)ccc2Cl)CC(C)O1 (stereo not shown) — lower, -39.8%
- CN(C)c1ccc(/C=[N+](\[O-])C2N(c3ccccc3)C(=S)SC2(C)C)cc1 (stereo not shown) — higher, 8.72%
- O=C(COC(=O)Cn1cnc2ccccc21)Nc1cc2c(cc1Cl)C(=O)c1ccccc1C2=O — higher, 14.8%
- CN(C)S(=O)(=O)N1CCC(Oc2ccc(C(=O)NC3Cc4ccccc4C3)cc2)CC1 — higher, 7.61%
- O=C1CC(SC2=NCCS2)C(=O)N1c1cccc(Cl)c1Cl (stereo not shown) — higher, 11.1%
- CCCc1c(O)nc(SC2CC(=O)N(c3ccc(OC)cc3)C2=O)[nH]c1=O.Cl (stereo not shown) — higher, 1.99%
- CC(=O)c1cccc(CN2CCN(C3CCCC3)C(CCO)C2)c1 (stereo not shown) — lower, -23.9%
- N/C(=N\OC(=O)COc1ccc(Cl)cc1)c1ccc(Cl)cc1 — higher, 17.9%
- O=C(N[C@@H](Cc1ccccc1)C(=O)O)c1cccs1 — higher, 15.5%
- CNC(=S)NNC(=O)c1ccccc1Br — higher, 7.8%
- CCOc1ccccc1C=Nc1ccccc1C(=O)Nc1ccccc1 — lower, -3.41%
- CCC(C)N(NC(C)=O)c1nc(Cl)nc(NC(C)C)n1 (stereo not shown) — lower, -4.33%
- COc1cccc(/C=N/NC(=O)c2cccc([N+](=O)[O-])c2)c1OS(=O)(=O)c1ccccc1 — lower, -16.2%
- CCOC(=O)C1CN(S(=O)(=O)c2ccc(Cl)cc2)c2cc(S(=O)(=O)CC)ccc2O1 (stereo not shown) — lower, -19.5%
- Cc1ccc(/C=C2/Sc3ccccc3N(CC(=O)NCCCOC(C)C)C2=O)cc1 — higher, 1.84%
- COc1ccc(C(CC(=O)N2CCCC2)c2c(OC)cc(OC)c3ccc(=O)oc23)cc1 (stereo not shown) — lower, -9.25%
- CCCc1cc(=O)oc2c(CN3CCOCC3)c(O)ccc12 — lower, -16.7%
- COc1cc(C2c3c(oc4ccccc4c3=O)C(=O)N2Cc2ccncc2)ccc1O (stereo not shown) — lower, -29.7%
- COC(=O)c1sc(-c2ccc(C(C)(C)C)cc2)cc1NC(=O)c1ccccc1C(=O)O — higher, 9.37%
- CCC(=O)Nc1cccc(NC(=O)c2cccnc2)c1 — higher, 3.31%
- COc1ccc(CCNC(=O)COC(=O)CCC(=O)c2ccc(F)cc2)cc1 — higher, 4.8%
- COc1cccc(CC(=O)N(C)C2CCCN(Cc3ccccc3F)C2)c1 (stereo not shown) — lower, -4.79%
- CC(C)=CCc1cc([C@@H]2COc3c(ccc4c3C=CC(C)(C)O4)C2)c(O)cc1O — higher, 3.61%
- COc1ccc(CCNC(=O)COC(=O)/C=C/c2cccs2)cc1 — higher, 8.62%
- CN(CC(=O)Nc1ccc(Cl)c(C(F)(F)F)c1)C(=O)CCNC(=O)c1ccco1 — lower, -43.1%
- O=C(c1cc(Cl)ccc1F)N1CCCC(Nc2ccc3c(c2)OCCO3)C1 (stereo not shown) — lower, -4.44%
- Cc1cc(C)cc(NC(=O)[C@H](Cc2c[nH]c3ccccc23)NC(=O)[C@@H]2Cc3ccccc3CN2)c1 — lower, -5.98%
- COC(=O)c1ccc(CSc2ncnc3c2nnn3-c2ccc(OC)cc2)o1 — lower, -3.25%
- CCc1ccc(NC(=O)N(C2CCC(C)CC2)C2CCN(C(C)=O)CC2)cc1 (stereo not shown) — lower, -30.3%
- CC(C)(C)NC(=O)CSc1nnc(SCC(=O)NC(C)(C)C)s1 — higher, 38.9%
- Cc1cccc(C)c1NC(=O)CSc1nc(C)c(CC(=O)c2ccc(Br)cc2)c(C)c1C#N — higher, 6.53%
- Cc1ccccc1Nc1nc(N)nc(CN2CCN(C(=O)c3ccccc3)CC2)n1 — lower, -37.9%
- CC(=O)OCC(OC(C)=O)C(OC(C)=O)C(OC(C)=O)C(=O)Nc1ccccc1 (stereo not shown) — higher, 16.6%
- CCOC(=O)C1CCCN(C(=O)c2cn(C)c(=O)c3cc(OC)c(OC)cc23)C1 (stereo not shown) — higher, 15.2%
- COc1cc(OC)c(C2N(c3cc(C)on3)C(=O)C3CCCN32)cc1OC (stereo not shown) — higher, 5.95%
- Cc1cccc(C)c1NC(=O)Cn1nnc(C(=O)Nc2ccc(F)cc2F)c1N — higher, 15.9%
- CC(C)CNC(=O)CN(C)S(=O)(=O)c1ccc(F)cc1 — higher, -1.25%
- OC1(c2ccccc2F)CCN(Cc2nnc(-c3ccccc3)o2)CC1 — lower, -2.92%
- O=C(Nc1ccccc1F)c1ccc(S(=O)(=O)N2CCCCCC2)cc1 — higher, 6.11%
- CC(C)(C)N(Cc1ccccc1)C(=O)COC(=O)c1cccc([N+](=O)[O-])c1 — lower, -4.66%
- c1ccc(SCc2nc3ccccc3[nH]2)nc1 — higher, 13.8%
- O=C(NCc1ccccc1)C(c1ccc(F)cc1)N(Cc1ccc2c(c1)OCO2)C(=O)Cn1nnc(-c2cccs2)n1 (stereo not shown) — lower, -1.88%
